This note sets out measurements from patent US20240409609A1, “REVERSIBLE LYSINE COVALENT MODIFIERS OF EGFR AND USES THEREOF” (Terremoto Biosciences, Inc., priority 2021, published 2024).

The target in test [1] is EGFR del746-750 T790M C797S in Ba/F3 cells (Homo sapiens (Human), UniProt P00533, C797S/DEL746-750/T790M). As to the kind of experiment: Ba/F3 pEGFR assay (AlphaLISA p-EGFR Tyr1068). The class given is cell-based. The following applies: 2 hrs treatment; read-out: pEGFR Ba/F3 del19/T790M/C797S IC50. As for the experimental part:
(§1) Cellular activity was determined using the Ba/F3 system for studying oncogenic mutant kinases (Warmuth 2007). […] Transduced cells were maintained in RPMI 1640 with 10% FBS. EGFR WT transduced cells were grown in media supplemented with EGF. To assay cellular activity of inhibitors, cells were treated with inhibitor from 1000X DMSO stock dilutions and incubated for 2 hrs at 37° C. 5% CO2. Subsequently, p-EGFR (Tyr1068) was quantified using a commercial sandwich immunoassay (PerkinElmer AlphaLISA SureFire assay; ALSU-PEGFR) according to the manufacturer's instructions. […] Curr Opin Oncol 19, 55-60 (2007), which is incorporated herein in its entirety.

Test [2] concerns the target EGFR T790M C797S L858R in Ba/F3 cells (Homo sapiens (Human), UniProt P00533, C797S/L858R/T790M). Kind of test: Ba/F3 pEGFR assay (AlphaLISA p-EGFR Tyr1068). The format is cell-based. As to conditions: 2 hrs treatment. Here is the method:
as §1

The target of test [3] is EGFR L858R/T790M/C797S (Homo sapiens (Human), UniProt P00533, C797S/L858R/T790M). Kind of test: EGFR biochemical assay (AssayQuant chelation-enhanced fluorescence).
In test [4] the target is EGFR (d746-750) T790M C797S (Homo sapiens (Human), UniProt P00533, C797S/DEL746-750/T790M). The test is described as above.
The mark [5] stands for this setting: read-out: AssayQuant EGFR LR/TM/CS IC50, 30 min preincubation, reaction time 150 min.
Setting [6] is: read-out: AssayQuant EGFR del19/TM/CS IC50, 30 min preincubation, reaction time 150 min.

Structures are written as SMILES. pIC50: −log10 of the molar value. Read-outs that look alike come from different tables or passages of the source.

`COc1cc(N2CCC(N3CCN(C)CC3)CC2)ccc1Nc1ncc(-c2cc(F)c(O)c(C=O)c2)c(Nc2ccccc2)n1` [Compound 9]: the pIC50 was 6.06 in test [1], 6.22 in test [2], 7.68 in test [3] (setting [5]) and 7.45 in test [4] (setting [6]).
As to `COc1cc(N2CCC(N3CCN(C)CC3)CC2)ccc1Nc1ncc(-c2cc(C=O)c(O)cc2C)c(Nc2ccccc2)n1` [Compound 12], the pIC50 in test [3] (setting [5]) and in test [4] (setting [6]) was 6.17 each time.
On to `COc1cc(N2CCC(N3CCN(C)CC3)CC2)ccc1Nc1ncc(-c2cc(C=O)c(O)cc2OC)c(Nc2ccccc2)n1` [Compound 13], for which the pIC50 was below 5.00 in test [1], below 5.00 in test [2], 6.54 in test [3] (setting [5]) and below 6.00 in test [4] (setting [6]).
In the case of `COc1cc(N2CCC(N3CCN(C)CC3)CC2)ccc1Nc1ncc(-c2cccc(C=O)c2)c(Nc2ccccc2)n1` [Compound 14], the pIC50 is below 5.00 in test [1], below 5.00 in test [2], 7.74 in test [3] (setting [5]) and 6.77 in test [4] (setting [6]).
For `CNc1nc(Nc2ccc(N3CCC(N4CCN(C)CC4)CC3)cc2OC)ncc1-c1ccc(O)c(C=O)c1` [Compound 15], the pIC50 is 5.20 in test [1], 5.16 in test [2], 7.24 in test [3] (setting [5]) and 6.68 in test [4] (setting [6]).
With `COc1cc(N2CCC(N3CCN(C)CC3)CC2)ccc1Nc1ncc(C#Cc2cccc(C=O)c2O)c(Nc2ccccc2)n1` [Compound 16], the pIC50 in test [3] (setting [5]) and in test [4] (setting [6]) was below 6.00 throughout.
Turning to `COc1cc(N2CCC(N3CCN(C)CC3)CC2)ccc1Nc1ncc(C#Cc2cccc(O)c2C=O)c(Nc2ccccc2)n1` [Compound 18], the pIC50 was 6.20 in test [1], 6.41 in test [2], 7.94 in test [3] (setting [5]) and 6.76 in test [4] (setting [6]).
For `COc1cc(N2CCC(N3CCN(C)CC3)CC2)ccc1Nc1ncc(-c2ccc(NC(C)=O)c(C=O)c2)c(Nc2ccccc2)n1` [Compound 20], in that order: 5.25, below 5.00, below 6.00 and below 6.00.
Take `COc1cc(N2CCC(N3CCN(C)CC3)CC2)ccc1Nc1ncc(-c2ccc(O)c(C=O)c2)c(Oc2ccccc2)n1` [Compound 21]: the pIC50 in test [3] (setting [5]) and in test [4] (setting [6]) was below 6.00 throughout.
`COc1cc(N2CCC(N3CCN(C)CC3)CC2)ccc1Nc1ncc(-c2ccc(O)c(C=O)c2)c(-c2ccccc2)n1` [Compound 22]: the pIC50 in test [3] (setting [5]) is 8.22; in test [4] (setting [6]) it was 7.01.
For `COc1cc(N2CCC(N3CCN(C)CC3)CC2)ccc1Nc1ncc(-c2ccc(C=O)c(O)c2)c(Nc2ccccc2P(C)(C)=O)n1` [Compound 24], the pIC50 in test [3] (setting [5]) is 7.66; in test [4] (setting [6]), below 6.00.
For `COc1cc(N2CCC(N3CCN(C)CC3)CC2)ccc1Nc1ncc(Cl)c(Nc2cccc(-c3cccc(C=O)c3O)c2)n1` [Compound 25], in that order: 6.41 and below 6.00.
The corresponding values for `COc1cc(N2CCC(N3CCN(C)CC3)CC2)ccc1Nc1ncc(-c2ccc(O)c(C=O)c2)c(Nc2ccccc2P(C)(C)=O)n1` [Compound 27] are 7.82 and 8.06.
As for `COc1cc(N(C)CCN(C)C)ccc1Nc1ncc(Cl)c(-c2cn(Cc3cccc(C=O)c3O)c3ccccc23)n1` [Compound 31], the pIC50 is 6.73 in test [3] and 6.24 in test [4].
In the case of `CC(C)c1ccc(N2CC(CS(C)(=O)=O)C2)c2cnc(Nc3ccnc(-c4ccc(O)c(C=O)c4)n3)cc12` [Compound 47], the pIC50 in test [3] (setting [5]) was 7.00; in test [4] (setting [6]), 7.81.
The corresponding values for `CC(C)c1ccc(N2CC(CS(C)(=O)=O)C2)c2cnc(Nc3ccnc(-c4cccc(C=O)c4O)n3)cc12` [Compound 50] are below 6.00 and below 6.00.
For the compound `CC(C)(O)Cn1/c(=N/C(=O)c2ccnc(C#Cc3cccc(C=O)c3O)c2)[nH]c2ccccc21` [Compound 137], the pIC50 in test [3] (setting [5]) was 6.13; in test [4] (setting [6]), 6.23.
